Results published in publication PMC4336329 (PLoS ONE, 2015).
Among all 310,000 compounds or so, about 14,000 (4.5%) showed an effect of 50% or more. The effect is printed as a negative number. This is one part of the list.

Target: human ether-à-go-go-related gene (hERG) potassium channel (human, UniProt Q12809)
Assay: primary screen, population patch clamp on CHO cells stably expressing hERG
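Note: peak tail current of the secondary pulse compared with the same well before compound.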

Sequence of human ether-à-go-go-related gene (hERG) potassium channel (Q12809 whole entry, looked up): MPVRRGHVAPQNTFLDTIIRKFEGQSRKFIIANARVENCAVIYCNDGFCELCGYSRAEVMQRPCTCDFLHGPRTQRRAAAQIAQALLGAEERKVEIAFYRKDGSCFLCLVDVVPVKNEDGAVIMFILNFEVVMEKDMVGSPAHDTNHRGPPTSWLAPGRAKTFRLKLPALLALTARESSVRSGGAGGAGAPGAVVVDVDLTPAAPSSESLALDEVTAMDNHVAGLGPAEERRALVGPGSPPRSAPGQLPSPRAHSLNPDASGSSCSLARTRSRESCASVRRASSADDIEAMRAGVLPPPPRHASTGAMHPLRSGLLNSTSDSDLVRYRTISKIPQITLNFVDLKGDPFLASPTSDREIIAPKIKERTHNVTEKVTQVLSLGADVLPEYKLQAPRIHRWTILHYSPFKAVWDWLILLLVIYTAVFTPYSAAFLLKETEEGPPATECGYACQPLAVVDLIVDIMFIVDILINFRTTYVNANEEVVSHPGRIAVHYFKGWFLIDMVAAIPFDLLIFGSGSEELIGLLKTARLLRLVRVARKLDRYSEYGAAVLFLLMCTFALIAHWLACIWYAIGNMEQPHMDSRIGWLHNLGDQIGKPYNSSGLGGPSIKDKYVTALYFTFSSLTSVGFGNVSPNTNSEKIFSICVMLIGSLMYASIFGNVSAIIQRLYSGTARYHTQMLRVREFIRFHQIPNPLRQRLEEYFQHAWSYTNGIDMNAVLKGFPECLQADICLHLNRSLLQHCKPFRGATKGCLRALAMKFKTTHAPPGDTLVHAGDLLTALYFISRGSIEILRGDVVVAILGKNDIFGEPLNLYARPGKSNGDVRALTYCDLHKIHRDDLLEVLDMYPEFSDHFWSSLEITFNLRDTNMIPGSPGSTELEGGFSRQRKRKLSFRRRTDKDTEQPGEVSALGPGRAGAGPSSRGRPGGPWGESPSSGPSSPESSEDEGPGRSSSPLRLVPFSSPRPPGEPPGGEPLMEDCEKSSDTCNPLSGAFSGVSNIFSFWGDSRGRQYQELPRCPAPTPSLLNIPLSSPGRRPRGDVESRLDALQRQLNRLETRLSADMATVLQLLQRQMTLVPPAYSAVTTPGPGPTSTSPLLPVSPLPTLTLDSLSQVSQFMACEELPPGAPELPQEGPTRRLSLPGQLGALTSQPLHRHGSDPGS

SMILES | hERG current change (%, negative = inhibition) at 10uM [%]
O=C(Nc1ccccc1)C1=C(N2CCOCC2)/C(=C/c2cccnc2)CC1 | -40.2
CN(C)c1ccc(C=NC(CO)C(O)c2ccc([N+](=O)[O-])cc2)cc1 (stereo not drawn) | -1.65
N/C(CC(=O)Nc1ccc(F)cc1F)=N\OC(=O)c1cccs1 | -9.37
O=C1Cc2cc(S(=O)(=O)Nc3ccc(F)cc3Cl)ccc2N1 | -6.75
COc1ccc(C(=O)Nc2ccc3oc(-c4cccc(Cl)c4)cc(=O)c3c2O)cc1 | 4.4
COc1cc(OC)cc(-c2c(-c3ccc(F)cc3)c3cc(-c4ccc5cc[nH]c5c4)ccc3n2C)c1 | 14.2
CC(=O)Nc1ccc(NC(=O)c2oc3cc(C)c(C)cc3c2C)cc1 | 7.5
O=C(O)c1ccccc1C(=O)NCC(O)COCC1CC=CCC1 (stereo not drawn) | -33.5
COC(=O)[C@@]1(Cc2ccc(F)cc2)[C@H]2c3cc(C(=O)N(C)C)n(C[C@H](O)CO)c3C[C@H]2CN1C(=O)c1ccccc1 | 9.02
COCc1c(Br)c(C)nc2sc3c(=O)[nH]nnc3c12 | 10.3
Cc1ccc(S(=O)(=O)N2CC=C(C(=O)NC3CCCC3)CC2)cc1 | -15.3
CC1(C)CC(CC(=O)Nc2ccccc2[N+](=O)[O-])C(=O)O1 (stereo not drawn) | -1.77
S=c1nc2ccccc2c2nc(-c3ccccc3Br)[nH]n12 | 15.6
Cc1cc(N2CCN(C3CCCCC3)CC2)nc2cccc(O)c12 | -49.4
COc1cc(-c2nnc3sc(C4CCCCC4)nn23)cc(OC)c1OC | -43.7
O=C(Nc1ccc2c(c1)OCO2)c1ccc(Cl)nc1 | 5.7
COc1ccc(N=C2S/C(=C\c3ccc(C)s3)C(=O)N2CC(C)C)cc1 | -3.46
O=C(Nc1ccc2c(c1)OCO2)c1noc2c1CCCCC2 | -4.64
Cc1ccc(OCCCCN2CCCCC2)c(C)c1 | -24.6
CCCCN1C(=O)C(=O)N(CC(=O)Nc2sc(CC)cc2C(=O)OCC)C1=O | -10
CC(CNC(=O)CCc1ccccc1)NC(=O)CCc1ccccc1 (stereo not drawn) | 13.7
CCc1nnc(SCC(=O)Nc2ccc(N3CCN(S(C)(=O)=O)CC3)cc2)o1 | 0.927
CCOC(=O)c1c(CSC(=N)N)n(-c2ccccc2)c2cc(Br)c(OC(C)=O)cc12 | -77.9
COc1ccc(OCC(O)Cn2c(N3CCCCC3)nc3c2c(=O)[nH]c(=O)n3C)cc1 (stereo not drawn) | -5.73
CN(C)C(CNC(=O)c1ccc(NS(=O)(=O)c2ccc(F)cc2)cc1)c1ccco1 (stereo not drawn) | -13.7
Cc1ccc(-n2nnnc2CNC(=O)c2ccc([N+](=O)[O-])o2)cc1C | -5.83
CCNC(=S)N1CCN(c2ccc([N+](=O)[O-])cc2)CC1 | -64.5

SMILES | hERG current change (%, negative = inhibition) at 10uM [%]
CC(C)CN(C(=O)COC(=O)c1ccc(C#N)cc1)C1CCS(=O)(=O)C1 (stereo not drawn) | -41.7
COc1ccc(-c2nn(CCC#N)cc2C(=O)Nc2cccc(C(=O)O)c2)cc1OC | 20.9
CC(Nc1[nH]c(=O)n(C)c(=O)c1N=O)c1ccccc1 (stereo not drawn) | 24.9
COc1ccc(-n2c(=S)[nH]c3cc(C(=O)Nc4ccc(F)cc4)ccc3c2=O)c(OC)c1 | 11.7
O=C(OCc1ccccc1)Oc1cncc(C(=O)O)c1 | -1.45
O=C(Nc1ccc(C2=NCCN2)cc1)c1ccc(Cl)c(C(=O)Nc2ccc(C3=NCCN3)cc2)c1 | 9.58
CC1(C)CC(=O)C(C=NCCN2CCNCC2)=C(O)C1 | 13.1
Cc1ccccc1Oc1cc(NC(=O)Cn2cnc([N+](=O)[O-])c2)cc([N+](=O)[O-])c1 | 9.59
O=S(=O)(c1cc(Br)c(Cl)s1)N1CCCC1 | 2.34
CCc1noc(C)c1C(=O)N1CCN(S(=O)(=O)c2c(C)cc(C)cc2C)CC1 | -21.3
CCn1c(SCC(=O)OC)nnc1-c1ccccc1 | -14.7
Cc1cc(C)cc(NC(=O)N2CCN(S(C)(=O)=O)CC2)c1 | 26.5
O=c1[nH]c(C2CCN(S(=O)(=O)c3cccc(C(F)(F)F)c3)CC2)nc2c1nnn2Cc1cccc(F)c1 | 8.4
CCCCC(C(=O)O)C(C)CC(=O)Nc1nncs1 (stereo not drawn) | 13.1
COc1ccccc1C(=O)N/N=C(\C)CC(=O)Nc1ccccn1 | 16
Cc1cc2ncc(C(=O)Nc3ccccc3)c(C)n2n1 | -5
Cc1nc2c(-c3ccc(F)cc3)c(C)nn2c(C)c1CCC(=O)NCCN1CCOCC1 | -24.3
CC(C)CNC(=O)c1cc(-c2ccco2)on1 | 5.6
CC(C)C[C@@H]1NC(=O)N(CCN2CCOCC2)C1=O | -9.72
CCOc1ncccc1C(=O)OCC(=O)c1cc(OC)c(OC)c(OC)c1 | -1.76
CCN(CC(=O)Nc1ccc(NC(C)=O)cc1)C(=O)CCCOc1ccc(C(C)(C)C)cc1 | 15.8
O=C(c1cc2nc(-c3ccccc3)cc(-c3ccccc3)n2n1)N1CCC2(CC1)OCCO2 | -49.4
CC1CCN(C(=O)Cn2c(=O)n(Cc3ccc4c(c3)OCO4)c(=O)c3ccccc32)CC1 | -18.5
Cc1nn(Cc2ccc(Cl)cc2)c(C)c1NC(=O)Cn1nc([N+](=O)[O-])c(Cl)c1C | 2.42
Cn1c(Oc2ccccc2)c(C=O)c2ccccc21 | -9.62
c1ccc(C2CC(c3ccccc3)n3c(nc4ccccc43)N2)cc1 (stereo not drawn) | 3.56
COc1ccc(-c2oc(/N=C/N3CCCC3)c(C#N)c2-c2ccc(OC)cc2)cc1 | -18.5
